These results are taken from article PMC4242493.

The other results are listed elsewhere or left out. The list includes weakly bound sequences.

This assay addresses MaxL homodimer (UniProt P61244). The assay is described as follows: universal protein-binding microarray (PBM). Conditions: PBS-based mixture, 10 nM His-tagged protein dimer, 2% milk, 200 ng/uL BSA, 50 ng/uL salmon testes DNA, 0.02% TX-100; detection with Alexa 488 anti-His …; high values mean tight binding; most listed sequences are background and not binding sites; double strand, one strand shown.
Sequence of UniProt P61244 (P61244 whole entry): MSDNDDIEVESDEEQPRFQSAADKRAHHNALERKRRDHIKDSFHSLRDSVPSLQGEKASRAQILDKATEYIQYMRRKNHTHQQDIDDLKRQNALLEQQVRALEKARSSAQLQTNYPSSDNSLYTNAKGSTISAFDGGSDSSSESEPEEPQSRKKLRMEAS
As for AGGACTGC, the binding signal (normalized occupancy) is 0.0704.

In the case of ACTCATCC, the binding signal (normalized occupancy) turned out to be 0.0806.

In the case of AGCTTTCA, the binding signal (normalized occupancy) is 0.0682.

GGACGACA: the binding signal (normalized occupancy) was determined as 0.0737.

CGGTACTA: the binding signal (normalized occupancy) worked out at 0.0725.

For CACTATGA, the binding signal (normalized occupancy) turned out to be 0.0828.

As for ACGAATGC, the binding signal (normalized occupancy) is 0.0793.

On to ATCACTTC, for which the binding signal (normalized occupancy) was 0.0797.

For the sequence GAAATGCC, the binding signal (normalized occupancy) was determined as 0.077.

On to GACCATAC, for which the binding signal (normalized occupancy) is 0.0805.

In the case of GCGCATGA, the binding signal (normalized occupancy) was 0.0897.

Turning to CAGCACTG, the binding signal (normalized occupancy) was 0.0698.

With AAGCCTCC, the binding signal (normalized occupancy) came to 0.072.

GTGAAGTA: the binding signal (normalized occupancy) was 0.0777.

As for AGGCAAAC, the binding signal (normalized occupancy) is 0.0684.

Turning to AGTTACGC, the binding signal (normalized occupancy) came out at 0.0736.

Regarding CAACAAAA, the binding signal (normalized occupancy) is 0.0692.

For the sequence AAGAACGT, the binding signal (normalized occupancy) worked out at 0.0766.

On to ACAACTGA, for which the binding signal (normalized occupancy) amounted to 0.0763.

With TGCCGCAA, the binding signal (normalized occupancy) was determined as 0.0788.

On to ACCGAAAC, for which the binding signal (normalized occupancy) was found to be 0.0726.

For CTCTCTTC, the binding signal (normalized occupancy) was 0.0708.

As to CTACACAA, the binding signal (normalized occupancy) amounted to 0.0806.

Turning to ACCAGCCA, the binding signal (normalized occupancy) was 0.0723.

For the sequence CATGATAG, the binding signal (normalized occupancy) is 0.0847.

For TACTGCTA, the binding signal (normalized occupancy) was 0.075.

For TCGCTACA, the binding signal (normalized occupancy) was found to be 0.0793.

Consider GAGCCCAC, for which the binding signal (normalized occupancy) worked out at 0.0761.

With AGCGCTGG, the binding signal (normalized occupancy) came out at 0.0684.

As to CCCCTTAG, the binding signal (normalized occupancy) is 0.0716.

For the sequence ATGCAAAT, the binding signal (normalized occupancy) came to 0.0818.

In the case of ATCGTACA, the binding signal (normalized occupancy) came out at 0.0781.

For ACTAAACC, the binding signal (normalized occupancy) turned out to be 0.0782.

Turning to GGTCTATA, the binding signal (normalized occupancy) turned out to be 0.085.

Turning to GTGTACAA, the binding signal (normalized occupancy) amounted to 0.0803.

On to GAGTATCC, for which the binding signal (normalized occupancy) worked out at 0.0728.

As to AAGGGATC, the binding signal (normalized occupancy) is 0.0712.

Turning to AAGCGGGT, the binding signal (normalized occupancy) worked out at 0.0679.

With AAGAGCGC, the binding signal (normalized occupancy) turned out to be 0.0706.

On to GACCAACC, for which the binding signal (normalized occupancy) amounted to 0.0713.

Turning to CGCTTCAA, the binding signal (normalized occupancy) was found to be 0.0675.

For GGTGCCTA, the binding signal (normalized occupancy) amounted to 0.0773.

Consider ATCTGATC, for which the binding signal (normalized occupancy) was found to be 0.0784.

In the case of AGTCCAAG, the binding signal (normalized occupancy) stood at 0.0718.

For the sequence CTACAACA, the binding signal (normalized occupancy) is 0.0787.

As to GAGCGGGC, the binding signal (normalized occupancy) is 0.0706.

For AAGGCCGG, the binding signal (normalized occupancy) was 0.0664.

ATAATGTG: the binding signal (normalized occupancy) worked out at 0.095.

For the sequence GCCCGCGA, the binding signal (normalized occupancy) is 0.0664.

For AGGAAAAC, the binding signal (normalized occupancy) amounted to 0.075.

As to CTTTCGTA, the binding signal (normalized occupancy) amounted to 0.0752.

On to TGAGGGAA, for which the binding signal (normalized occupancy) stood at 0.0785.

ACTGGCAA: the binding signal (normalized occupancy) was determined as 0.0759.

On to GGCTACAA, for which the binding signal (normalized occupancy) is 0.0713.

Take AGCCTAGA: the binding signal (normalized occupancy) was 0.0731.

As to ACCTCAAG, the binding signal (normalized occupancy) was determined as 0.0765.

CGTATGTC: the binding signal (normalized occupancy) amounted to 0.0795.

In the case of CCTTGTAG, the binding signal (normalized occupancy) is 0.0734.

Consider CAGCAGAG, for which the binding signal (normalized occupancy) was determined as 0.0727.

For the sequence GCGGCCAC, the binding signal (normalized occupancy) is 0.072.

For the sequence CACACGGG, the binding signal (normalized occupancy) came to 0.0889.

As for GTCATCAA, the binding signal (normalized occupancy) was determined as 0.0782.

In the case of AGAACGCT, the binding signal (normalized occupancy) was 0.0696.

Take CCCACGAG: the binding signal (normalized occupancy) was 0.0996.

Turning to CGTTAAAC, the binding signal (normalized occupancy) was 0.0747.

For the sequence ATTCCGCC, the binding signal (normalized occupancy) is 0.0717.

With CAGTTAAC, the binding signal (normalized occupancy) was 0.0727.

As for TAACTGTA, the binding signal (normalized occupancy) stood at 0.0739.

In the case of TATACCCA, the binding signal (normalized occupancy) amounted to 0.0824.

On to AATCGTGA, for which the binding signal (normalized occupancy) was 0.0761.

Take GCATACAC: the binding signal (normalized occupancy) amounted to 0.0833.

Consider ACAGTGCT, for which the binding signal (normalized occupancy) turned out to be 0.0742.

For GTCAATGA, the binding signal (normalized occupancy) came out at 0.0811.

As to ACCTAGGA, the binding signal (normalized occupancy) was 0.0732.

In the case of GCCTCCGA, the binding signal (normalized occupancy) was found to be 0.0697.

Take CTGCGGGC: the binding signal (normalized occupancy) stood at 0.0698.

On to GTAGGAGA, for which the binding signal (normalized occupancy) is 0.0744.

Regarding AGACCGTG, the binding signal (normalized occupancy) was found to be 0.0745.

For the sequence ATCACGCC, the binding signal (normalized occupancy) came to 0.0864.

Regarding AAATGGCT, the binding signal (normalized occupancy) is 0.0774.

As to ACGAGTAG, the binding signal (normalized occupancy) is 0.075.

Regarding CTGCCTCC, the binding signal (normalized occupancy) was 0.0705.

For the sequence ACCAAAGG, the binding signal (normalized occupancy) came out at 0.069.

For the sequence ATACATGA, the binding signal (normalized occupancy) amounted to 0.0834.

Regarding CGTACTAG, the binding signal (normalized occupancy) is 0.0712.

Consider ATCCTCGG, for which the binding signal (normalized occupancy) worked out at 0.0718.

As for CGGACCAC, the binding signal (normalized occupancy) is 0.0803.

For the sequence CTGGGTGA, the binding signal (normalized occupancy) worked out at 0.0665.

AAAAGAAC: the binding signal (normalized occupancy) amounted to 0.0741.

In the case of GCGTCCAA, the binding signal (normalized occupancy) is 0.072.

For GAGGGATC, the binding signal (normalized occupancy) was found to be 0.0736.

Consider ACAGGTGA, for which the binding signal (normalized occupancy) was 0.084.

Turning to AAACCGCC, the binding signal (normalized occupancy) stood at 0.0651.

As to AGCATCTC, the binding signal (normalized occupancy) is 0.0746.

For the sequence ATAAGAGA, the binding signal (normalized occupancy) was 0.0795.

For the sequence AGTTATAC, the binding signal (normalized occupancy) turned out to be 0.0784.

With CTCTGAAG, the binding signal (normalized occupancy) turned out to be 0.068.

GTCGTGCA: the binding signal (normalized occupancy) came out at 0.0855.

With CTGTCCCC, the binding signal (normalized occupancy) is 0.0754.

Regarding TGAATCCA, the binding signal (normalized occupancy) was determined as 0.0757.

CTGTCGAC: the binding signal (normalized occupancy) came to 0.0741.

As to AACGTGAC, the binding signal (normalized occupancy) is 0.109.

Regarding GGAGCTCA, the binding signal (normalized occupancy) turned out to be 0.0759.

As to AGAAAATA, the binding signal (normalized occupancy) is 0.0744.

Regarding AATACTCT, the binding signal (normalized occupancy) came out at 0.0782.

As for GTAATTTA, the binding signal (normalized occupancy) was 0.0747.

Regarding CCGGTAGC, the binding signal (normalized occupancy) was 0.0732.

Consider CCTGTCTA, for which the binding signal (normalized occupancy) was 0.0733.

As for GATCCAGC, the binding signal (normalized occupancy) is 0.0752.

Take AATACCCC: the binding signal (normalized occupancy) worked out at 0.0855.

As for CCCGGGCC, the binding signal (normalized occupancy) was determined as 0.0643.

GGGCCAAC: the binding signal (normalized occupancy) turned out to be 0.0715.

As to CAGACCTG, the binding signal (normalized occupancy) came out at 0.0707.

With AATCGGTA, the binding signal (normalized occupancy) was 0.0782.

For GGAACCCA, the binding signal (normalized occupancy) is 0.0717.

AATCGACG: the binding signal (normalized occupancy) amounted to 0.0719.

As for AATTTCTC, the binding signal (normalized occupancy) is 0.0726.

Turning to CCGGAATC, the binding signal (normalized occupancy) was found to be 0.0716.

Regarding CTAAGTCC, the binding signal (normalized occupancy) came to 0.0701.

As to CACCTTTA, the binding signal (normalized occupancy) was determined as 0.0769.

As for ACAGCACG, the binding signal (normalized occupancy) was determined as 0.0906.

With ACCCGCCC, the binding signal (normalized occupancy) turned out to be 0.0826.

GAGTGTAA: the binding signal (normalized occupancy) turned out to be 0.0757.

Take ACCTTCCA: the binding signal (normalized occupancy) was 0.0801.

Consider CATCCGGA, for which the binding signal (normalized occupancy) was 0.0723.

On to TAAATCGA, for which the binding signal (normalized occupancy) worked out at 0.0763.

CAATGGAA: the binding signal (normalized occupancy) came out at 0.074.

Take GCCTCTAC: the binding signal (normalized occupancy) came out at 0.0788.

Regarding CCTTGTGC, the binding signal (normalized occupancy) amounted to 0.0831.

For the sequence AAGAGGCC, the binding signal (normalized occupancy) amounted to 0.0686.

Take ACAATGCA: the binding signal (normalized occupancy) was determined as 0.0822.

As for GCAATAGA, the binding signal (normalized occupancy) came to 0.0806.

For AACTCCGA, the binding signal (normalized occupancy) was 0.068.

On to ACCGTCGA, for which the binding signal (normalized occupancy) is 0.0706.

In the case of TTCTCCAA, the binding signal (normalized occupancy) was 0.0748.

As for CCCCCCGC, the binding signal (normalized occupancy) was 0.0765.

On to CTTATACC, for which the binding signal (normalized occupancy) amounted to 0.0794.

Regarding GGCAATAA, the binding signal (normalized occupancy) stood at 0.0771.

As for GTCCCCGA, the binding signal (normalized occupancy) turned out to be 0.0696.

Turning to CGACAAGA, the binding signal (normalized occupancy) was 0.0683.

Take AGTTTAGG: the binding signal (normalized occupancy) was 0.0689.

Take CTAGCATA: the binding signal (normalized occupancy) was 0.0766.

For the sequence CACACGAA, the binding signal (normalized occupancy) was 0.0853.

Take AGAAGAGG: the binding signal (normalized occupancy) came out at 0.0712.

Turning to CCGTTCCG, the binding signal (normalized occupancy) was determined as 0.0671.

In the case of AGGGATCG, the binding signal (normalized occupancy) was 0.0723.

Turning to GGCATTTA, the binding signal (normalized occupancy) was 0.0801.

On to CCTGGGAG, for which the binding signal (normalized occupancy) turned out to be 0.074.

Take AGTGCGTA: the binding signal (normalized occupancy) stood at 0.0743.

As for TAGAGAAA, the binding signal (normalized occupancy) turned out to be 0.0732.

Take CACCATAA: the binding signal (normalized occupancy) came out at 0.0805.

CAAAGAGA: the binding signal (normalized occupancy) was found to be 0.0709.

AGCCGTCC: the binding signal (normalized occupancy) was found to be 0.067.

With CCATCAGC, the binding signal (normalized occupancy) stood at 0.0771.

On to CTCGTTAC, for which the binding signal (normalized occupancy) came to 0.0757.

For the sequence GGTTTAAA, the binding signal (normalized occupancy) worked out at 0.0741.

Regarding ACCGTACA, the binding signal (normalized occupancy) was 0.0768.

TTCCGCAA: the binding signal (normalized occupancy) was 0.0715.

As for CACCTAAA, the binding signal (normalized occupancy) was found to be 0.0692.

AACGGAGA: the binding signal (normalized occupancy) turned out to be 0.0747.

Take CAGGTCTA: the binding signal (normalized occupancy) was 0.0749.

Consider CAGTTGCG, for which the binding signal (normalized occupancy) was determined as 0.0733.

As for AGAGGACA, the binding signal (normalized occupancy) amounted to 0.0734.

Regarding CACATGAC, the binding signal (normalized occupancy) is 0.129.

Take CCGTTAAG: the binding signal (normalized occupancy) stood at 0.0714.

Turning to ACGAAAAG, the binding signal (normalized occupancy) was 0.0718.

On to AAGGGTCG, for which the binding signal (normalized occupancy) worked out at 0.0738.

CGCTGAGA: the binding signal (normalized occupancy) was found to be 0.0761.

For ATTCCAAC, the binding signal (normalized occupancy) is 0.0749.

With TAACGGTA, the binding signal (normalized occupancy) turned out to be 0.0757.

As for AAGTTGCA, the binding signal (normalized occupancy) is 0.0792.

With CGTAATTA, the binding signal (normalized occupancy) amounted to 0.0761.
